Results from the supplement of paper PMC8728848.
The other results are listed elsewhere or left out.

Columns and labels:
Assay in all cases: glycan array binding signal (z-score within array); higher = stronger binding
Conditions in all cases: glycan notation: IUPAC condensed, linker removed
[1] = target: Neu5Ac(a2-3)Gal(b1-4)[Fuc(a1-3)]GlcNAc(b1-3)GalNAc
Summary of the method: (§1)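 Columns mapping to the same glycan were averaged after glycan names were converted to IUPAC-condensed notation. The data come from 3228 arrays in the Consortium for Functional Glycomics database, limited to those with an available protein sequence. Binding is reported as a within-array Z-score averaged across arrays of one protein sequence and across linkers.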

[2] = target: Neu5Ac(a2-3)Gal(b1-4)[Fuc(a1-3)]GlcNAc(b1-6)[Gal(b1-3)]GalNAc
Summary of the method: as §1

[3] = target: Neu5Ac(a2-3)Gal(b1-4)[Fuc(a1-3)]GlcNAc(b1-6)[Neu5Ac(a2-3)Gal(b1-3)]GalNAc
Summary of the method: as §1

[4] = target: Neu5Ac(a2-3)Gal(b1-4)[Fuc(a1-3)]GlcNAc6S
Summary of the method: as §1

[5] = target: Neu5Ac(a2-3)Gal6S(b1-4)GlcNAc
Summary of the method: as §1

[6] = target: Neu5Ac(a2-3)Gal6S(b1-4)[Fuc(a1-3)]GlcNAc
Summary of the method: as §1

Neu5Ac(a2-3)GalNAc = target: Neu5Ac(a2-3)GalNAc
Summary of the method: as §1

[7] = target: Neu5Ac(a2-3)GalNAc(b1-4)GlcNAc
Summary of the method: as §1

[8] = target: Neu5Ac(a2-3)[GalNAc(b1-4)]Gal(b1-4)Glc
Summary of the method: as §1

[9] = target: Neu5Ac(a2-3)[GalNAc(b1-4)]Gal(b1-4)GlcNAc
Summary of the method: as §1

[10] = target: Neu5Ac(a2-3)[GalNAc(b1-4)]Gal(b1-4)GlcNAc(b1-3)GalNAc
Summary of the method: as §1

[11] = target: Neu5Ac(a2-3)[Neu5Ac(a2-6)]GalNAc
Summary of the method: as §1

Neu5Ac(a2-6)Gal = target: Neu5Ac(a2-6)Gal
Summary of the method: as §1

Neu5Ac(a2-6)Gal(b1-4)Glc = target: Neu5Ac(a2-6)Gal(b1-4)Glc
Summary of the method: as §1

[12] = target: Neu5Ac(a2-6)Gal(b1-4)GlcNAc
Summary of the method: as §1

[13] = target: Neu5Ac(a2-6)Gal(b1-4)GlcNAc(b1-2)Man(a1-3)Man(b1-4)GlcNAc(b1-4)GlcNAc
Summary of the method: as §1

[14] = target: Neu5Ac(a2-6)Gal(b1-4)GlcNAc(b1-2)Man(a1-3)[Gal(b1-4)GlcNAc(b1-2)Man(a1-6)]Man(b1-4)GlcNAc(b1-4)GlcNAc
Summary of the method: as §1

[15] = target: Neu5Ac(a2-6)Gal(b1-4)GlcNAc(b1-2)Man(a1-3)[GlcNAc(b1-2)Man(a1-6)]Man(b1-4)GlcNAc(b1-4)GlcNAc
Summary of the method: as §1

[16] = target: Neu5Ac(a2-6)Gal(b1-4)GlcNAc(b1-2)Man(a1-3)[GlcNAc(b1-2)Man(b1-4)GlcNAc(b1-2)Man(a1-6)]Man(b1-4)GlcNAc(b1-4)GlcNAc
Summary of the method: as §1

[17] = target: Neu5Ac(a2-6)Gal(b1-4)GlcNAc(b1-2)Man(a1-3)[Man(a1-6)]Man(b1-4)GlcNAc(b1-4)GlcNAc
Summary of the method: as §1

[18] = target: Neu5Ac(a2-6)Gal(b1-4)GlcNAc(b1-2)Man(a1-3)[Neu5Ac(a2-6)Gal(b1-4)GlcNAc(b1-2)Man(a1-6)]Man(b1-4)GlcNAc(b1-4)GlcNAc
Summary of the method: as §1

[19] = target: Neu5Ac(a2-6)Gal(b1-4)GlcNAc(b1-2)Man(a1-6)Man(b1-4)GlcNAc(b1-4)GlcNAc
Summary of the method: as §1

[20] = target: Neu5Ac(a2-6)Gal(b1-4)GlcNAc(b1-2)Man(a1-6)[Gal(b1-4)GlcNAc(b1-2)Man(a1-3)]Man(b1-4)GlcNAc(b1-4)GlcNAc
Summary of the method: as §1

[21] = target: Neu5Ac(a2-6)Gal(b1-4)GlcNAc(b1-2)Man(a1-6)[GlcNAc(b1-2)Man(a1-3)]Man(b1-4)GlcNAc(b1-4)GlcNAc
Summary of the method: as §1

[22] = target: Neu5Ac(a2-6)Gal(b1-4)GlcNAc(b1-2)Man(a1-6)[Man(a1-3)]Man(b1-4)GlcNAc(b1-4)GlcNAc
Summary of the method: as §1

[23] = target: Neu5Ac(a2-6)Gal(b1-4)GlcNAc(b1-3)Gal(b1-3)GlcNAc
Summary of the method: as §1

[24] = target: Neu5Ac(a2-6)Gal(b1-4)GlcNAc(b1-3)Gal(b1-4)GlcNAc
Summary of the method: as §1

[25] = target: Neu5Ac(a2-6)Gal(b1-4)GlcNAc(b1-3)Gal(b1-4)GlcNAc(b1-3)Gal(b1-4)GlcNAc
Summary of the method: as §1

[26] = target: Neu5Ac(a2-6)Gal(b1-4)GlcNAc(b1-3)Gal(b1-4)[Fuc(a1-3)]GlcNAc(b1-3)Gal(b1-4)[Fuc(a1-3)]GlcNAc
Summary of the method: as §1

[27] = target: Neu5Ac(a2-6)Gal(b1-4)GlcNAc(b1-3)GalNAc
Summary of the method: as §1

[28] = target: Neu5Ac(a2-6)Gal(b1-4)GlcNAc6S
Summary of the method: as §1

Neu5Ac(a2-6)GalNAc = target: Neu5Ac(a2-6)GalNAc
Summary of the method: as §1

[29] = target: Neu5Ac(a2-6)GalNAc(b1-4)GlcNAc
Summary of the method: as §1

[30] = target: Neu5Ac(a2-6)GlcNAc(b1-4)GlcNAc
Summary of the method: as §1

[31] = target: Neu5Ac(a2-6)GlcNAc(b1-4)GlcNAc(b1-4)GlcNAc
Summary of the method: as §1

Neu5Ac(a2-8)Neu5Ac = target: Neu5Ac(a2-8)Neu5Ac
Summary of the method: as §1

[32] = target: Neu5Ac(a2-8)Neu5Ac(a2-3)Gal(b1-4)Glc
Summary of the method: as §1

[33] = target: Neu5Ac(a2-8)Neu5Ac(a2-3)[GalNAc(b1-4)]Gal(b1-4)Glc
Summary of the method: as §1

[34] = target: Neu5Ac(a2-8)Neu5Ac(a2-8)Neu5Ac
Summary of the method: as §1

[35] = target: Neu5Ac(a2-8)Neu5Ac(a2-8)Neu5Ac(a2-3)Gal(b1-4)Glc
Summary of the method: as §1

[36] = target: Neu5Ac(a2-8)Neu5Ac(a2-8)Neu5Ac(a2-3)[GalNAc(b1-4)]Gal(b1-4)Glc
Summary of the method: as §1

[37] = target: Neu5Ac(a2-8)Neu5Ac(a2-8)Neu5Ac(a2-8)Neu5Ac(a2-3)[GalNAc(b1-4)]Gal(b1-4)Glc
Summary of the method: as §1

[38] = target: Neu5Ac(b2-6)Gal(b1-4)GlcNAc
Summary of the method: as §1

Neu5Ac(b2-6)GalNAc = target: Neu5Ac(b2-6)GalNAc
Summary of the method: as §1

[39] = target: Neu5Ac9Ac(a2-3)Gal(b1-3)GlcNAc
Summary of the method: as §1

[40] = target: Neu5Ac9Ac(a2-3)Gal(b1-4)GlcNAc
Summary of the method: as §1

[41] = target: Neu5Ac9Ac(a2-6)Gal(b1-4)GlcNAc
Summary of the method: as §1

[42] = target: Neu5Gc(a2-3)Gal(b1-3)GlcNAc
Summary of the method: as §1

[43] = target: Neu5Gc(a2-3)Gal(b1-3)[Fuc(a1-4)]GlcNAc
Summary of the method: as §1

Neu5Gc(a2-3)Gal(b1-4)Glc = target: Neu5Gc(a2-3)Gal(b1-4)Glc
Summary of the method: as §1

[44] = target: Neu5Gc(a2-3)Gal(b1-4)GlcNAc
Summary of the method: as §1

[45] = target: Neu5Gc(a2-3)Gal(b1-4)[Fuc(a1-3)]GlcNAc
Summary of the method: as §1

[46] = target: Neu5Gc(a2-6)Gal(b1-4)GlcNAc
Summary of the method: as §1

Neu5Gc(a2-6)GalNAc = target: Neu5Gc(a2-6)GalNAc
Summary of the method: as §1

[47] = target: Neu5Gc(b2-6)Gal(b1-4)GlcNAc
Summary of the method: as §1

B1: Ecp6 (Cladosporium fulvum), B3VBK9 (protein)
chain: MQSMILFAAALMGAAVNGFVLPRTDDPDCETKATDCGSTSNIKYTVVKGDTLTSIAKKFKSGICNIVSVNKLANPNLIELGATLIIPENCSNPDNKSCVSTPAEPTETCVPGLPGSYTIVSGDTLTNISQDFNITLDSLIAANTQIENPDAIDVGQIITVPVCPSSQCEAVGTYNIVAGDLFVDLAATYHTTIGQIKALNNNVNPSKLKVGQQIILPQDCKNVTTAVA
With B1 the “glycan array binding signal (z-score)” value [1] was -0.004, the “glycan array binding signal (z-score)” value [2] was -0.061 and the “glycan array binding signal (z-score)” value [3] was -0.088. The “glycan array binding signal (z-score)” value [4] was -0.081, the “glycan array binding signal (z-score)” value [5] was -0.064 and the “glycan array binding signal (z-score)” value [6] was -0.073. For the same binder, the “glycan array binding signal (z-score)” value (Neu5Ac(a2-3)GalNAc) was -0.064, the “glycan array binding signal (z-score)” value [7] was -0.052 and the “glycan array binding signal (z-score)” value [8] was -0.087. For the same binder, the “glycan array binding signal (z-score)” value [9] was -0.093, the “glycan array binding signal (z-score)” value [10] was -0.092 and the “glycan array binding signal (z-score)” value [11] was -0.067. For the same binder, the “glycan array binding signal (z-score)” value (Neu5Ac(a2-6)Gal) was -0.087, the “glycan array binding signal (z-score)” value (Neu5Ac(a2-6)Gal(b1-4)Glc) was -0.096 and the “glycan array binding signal (z-score)” value [12] was -0.086. The “glycan array binding signal (z-score)” value [13] was -0.099, the “glycan array binding signal (z-score)” value [14] was -0.084 and the “glycan array binding signal (z-score)” value [15] was -0.094. The “glycan array binding signal (z-score)” value [16] was -0.085, the “glycan array binding signal (z-score)” value [17] was -0.103 and the “glycan array binding signal (z-score)” value [18] was -0.085. For the same binder, the “glycan array binding signal (z-score)” value [19] was -0.093, the “glycan array binding signal (z-score)” value [20] was -0.121 and the “glycan array binding signal (z-score)” value [21] was -0.103. The “glycan array binding signal (z-score)” value [22] was -0.101, the “glycan array binding signal (z-score)” value [23] was -0.092 and the “glycan array binding signal (z-score)” value [24] was -0.07. The “glycan array binding signal (z-score)” value [25] was -0.07, the “glycan array binding signal (z-score)” value [26] was -0.087 and the “glycan array binding signal (z-score)” value [27] was -0.096. The “glycan array binding signal (z-score)” value [28] was -0.091, the “glycan array binding signal (z-score)” value (Neu5Ac(a2-6)GalNAc) was -0.105 and the “glycan array binding signal (z-score)” value [29] was -0.063. For the same binder, the “glycan array binding signal (z-score)” value [30] was -0.083, the “glycan array binding signal (z-score)” value [31] was -0.04 and the “glycan array binding signal (z-score)” value (Neu5Ac(a2-8)Neu5Ac) was -0.092. For the same binder, the “glycan array binding signal (z-score)” value [32] was -0.099, the “glycan array binding signal (z-score)” value [33] was -0.1 and the “glycan array binding signal (z-score)” value [34] was -0.1. For the same binder, the “glycan array binding signal (z-score)” value [35] was -0.105, the “glycan array binding signal (z-score)” value [36] was -0.099 and the “glycan array binding signal (z-score)” value [37] was -0.082. The “glycan array binding signal (z-score)” value [38] was -0.088, the “glycan array binding signal (z-score)” value (Neu5Ac(b2-6)GalNAc) was -0.116 and the “glycan array binding signal (z-score)” value [39] was -0.075. The “glycan array binding signal (z-score)” value [40] was -0.097, the “glycan array binding signal (z-score)” value [41] was -0.084 and the “glycan array binding signal (z-score)” value [42] was -0.102. The “glycan array binding signal (z-score)” value [43] was -0.091, the “glycan array binding signal (z-score)” value (Neu5Gc(a2-3)Gal(b1-4)Glc) was -0.066 and the “glycan array binding signal (z-score)” value [44] was -0.116. The “glycan array binding signal (z-score)” value [45] was -0.081, the “glycan array binding signal (z-score)” value [46] was -0.079 and the “glycan array binding signal (z-score)” value (Neu5Gc(a2-6)GalNAc) was -0.11. The “glycan array binding signal (z-score)” value [47] was -0.088.
